± gives the standard deviation of the averaged measurements. The list shows a part of the results.
What follows are sequences tested on PfAP2-LT AP2 domain (GST-tagged) (assay: gcPBM binding intensity (ln(normalized median fluorescence intensity)); higher = stronger DNA binding).
Summary of the method: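 The binding buffer was 1× PBS containing 1% milk, 0.2 mg/ml BSA, 0.5% salmon testes DNA and 0.03% Triton X-100. In it, GST-tagged P. falciparum DNA-binding domains expressed in E. coli were applied for 1 h to an Agilent 4 × 180k array of primer-extended double-stranded 36-bp intergenic genomic probes plus negative controls. Binding intensity, read with Alexa488 anti-GST antibody and a 488 nm scan, is the highest Masliner-normalised natural-log median intensity across replicate spots of either probe orientation.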
“ATTTTATTTTTTTGTGATAATTGATTTATATATTGT [TGCATGCA_negctrl_site563]” was tested, and the “gcPBM binding intensity (ln)” value was 8.72 ± 0.45. For “AATAGAATAATCCTTACACACACACGCGCACGAATA [CACACA_site6365]”, the “gcPBM binding intensity (ln)” value was 9.78 ± 0.31. In the case of “ATTATTTCTTTGTGATGTACAAATAAACATGTTGGT [XGTACX_site5636]”, the “gcPBM binding intensity (ln)” value is reported as 8.77 ± 0.47. With “TATATATTACATTGTTGTACATATATATTATATATA [XGTACX_site60]” the “gcPBM binding intensity (ln)” value was 8.85 ± 0.39. With “ATATATATATATATTTGTACGTATTATGTATTTTTT [XGTACX_site3530]” the “gcPBM binding intensity (ln)” value was 9.54 ± 0.28. In the case of “AATACAATAAAATAGTGTACATATATATTATGTATA [XGTACX_site8258]”, the “gcPBM binding intensity (ln)” value is reported as 8.98 ± 0.44. “TTTATATTATACTATACATGCATATAATAAAGGTCA [TGCATGCA_site934]” was tested, and the “gcPBM binding intensity (ln)” value was 8.64 ± 0.28. “GAATAAATTAAAAACGCATGTATCATTACTACATAA [TGCATGCA_site111]” was tested, and the “gcPBM binding intensity (ln)” value was 8.72 ± 0.38. “TTAAAATATGATATATGTACATAATTACTAAAAACA [XGTACX_site276]” was tested, and the “gcPBM binding intensity (ln)” value was 8.64 ± 0.35. In the case of “GGGTTCAATTTAAAGAGTACAAAAAATGTAGGTCAT [XGTACX_site5290]”, the “gcPBM binding intensity (ln)” value is reported as 8.92 ± 0.52. In the case of “TATTATGCCTTTAATATACACACTAATATTTTTTTG [CACACA_site2045]”, the “gcPBM binding intensity (ln)” value is reported as 8.84 ± 0.4. For “ATTTATCCAAAAAAATGTACAGGATAATTTGTTCAT [XGTACX_site7737]”, the “gcPBM binding intensity (ln)” value was 8.64 ± 0.34. In the case of “TATAAAAATTAATATTGTACGTTTTATGAAAATAAA [XGTACX_site8237]”, the “gcPBM binding intensity (ln)” value is reported as 8.21 ± 0.47. With “CATAATACCTATAACACACACAATTATACATAAACT [CACACA_site7506]” the “gcPBM binding intensity (ln)” value was 9.53 ± 0.24. With “AATATATACATATATTGTACATATAGTTTCTTGCAT [XGTACX_site7871]” the “gcPBM binding intensity (ln)” value was 8.97 ± 0.31. For “AGAGAGAAAGTTATAACATGCAACAATTTTTAGAAC [TGCATGCA_site96]”, the “gcPBM binding intensity (ln)” value was 8.82 ± 0.52. TTTTTTTTTTTGTGGGTGCGTTTATAAAAACAGGAA was tested, and the “gcPBM binding intensity (ln)” value was 8.42 ± 0.33. With “TTTTTTTCTTGTTTTAAATAATATACTGGAAAAAAA [CACACA_negctrl_site585]” the “gcPBM binding intensity (ln)” value was 7.88 ± 0.33. For “TTTCCATATTGTGGATGTACGTTTTGAGGTTTTTAC [XGTACX_site3362]”, the “gcPBM binding intensity (ln)” value was 8.88 ± 0.42. In the case of “TTTTAATAAACAAAACGTACACATTATTATTATATA [XGTACX_site335]”, the “gcPBM binding intensity (ln)” value is reported as 8.51 ± 0.42. In the case of “TTTGTAGTTTGCACATGTACACATTTCAAAATAAAG [XGTACX_site7568]”, the “gcPBM binding intensity (ln)” value is reported as 8.59 ± 0.36. With “TATTTGTTGTGAGTCACACATATATATATATATATA [CACACA_site4240]” the “gcPBM binding intensity (ln)” value was 9.85 ± 0.23. In the case of “AAGCTATATATAGGCAGTACTTTGTAAGTGTAGATA [XGTACX_site8365]”, the “gcPBM binding intensity (ln)” value is reported as 9.04 ± 0.45. In the case of “TTTTTTATAAAATTTTTTTTTTAAAATATTAAAACT [XGTACX_negctrl_site240]”, the “gcPBM binding intensity (ln)” value is reported as 7.95 ± 0.61. With “AAAAAAAAAAAAAAAACACACAGAACAATATATAAA [CACACA_site4698]” the “gcPBM binding intensity (ln)” value was 8.89 ± 0.51. For “TATATGCATATACATACACACATAACACATACGTTT [CACACA_site3832]”, the “gcPBM binding intensity (ln)” value was 9.28 ± 0.35. For “ATATGTCACTTGTATACACACATATAGATTTCAATC [CACACA_site7519]”, the “gcPBM binding intensity (ln)” value was 9.28 ± 0.26. “TTTCTAATTCTTAGTGGTACACAGTTCTGCTGATAT [XGTACX_site2391]” was tested, and the “gcPBM binding intensity (ln)” value was 8.64 ± 0.53. For “TTGTTTTTTTTTGGCTGTACGTTCATAAATTTTTTT [XGTACX_site4165]”, the “gcPBM binding intensity (ln)” value was 8.82 ± 0.49. For “TTTTCATAAAATCATTGTACATTTATCGTATATTAA [XGTACX_site3855]”, the “gcPBM binding intensity (ln)” value was 8.55 ± 0.51. For “ATATTGTAAGTAAACACACACACATATATATGTATA [CACACA_site8124]”, the “gcPBM binding intensity (ln)” value was 9.53 ± 0.35. With “AAAATATCTTATATATGTACATATTTATATTTATAT [XGTACX_site6027]” the “gcPBM binding intensity (ln)” value was 8.86 ± 0.39. For “ACAATTTACACTTAAACACACAAAAAAAAATTATAT [CACACA_site2065]”, the “gcPBM binding intensity (ln)” value was 8.93 ± 0.42. With “TGTTTTATTTTATTAGTGCATTTTTATTTATAATAG [GTGCAC_site9453]” the “gcPBM binding intensity (ln)” value was 8.63 ± 0.48. In the case of “AAGGTAGAAATATGTTGTACGGTTTGGAGGAAGCAA [XGTACX_site1105]”, the “gcPBM binding intensity (ln)” value is reported as 8.77 ± 0.48. With “GCATCGATCAAACATACACACATGGTTAATAAAAAT [CACACA_site8651]” the “gcPBM binding intensity (ln)” value was 9.24 ± 0.47. For “ACATATATATTCATATGTACATATACATACATACAT [XGTACX_site4563]”, the “gcPBM binding intensity (ln)” value was 9.13 ± 0.47. In the case of “GACAAAAAATTAAAATAAAATAATAATATAATAAAA [GTGCAC_negctrl_site234]”, the “gcPBM binding intensity (ln)” value is reported as 8.55 ± 0.67. In the case of “ATATAATAGTTATATTGTACATAAATTATACACCTT [XGTACX_site628]”, the “gcPBM binding intensity (ln)” value is reported as 8.7 ± 0.48. With “TATAAACACCCATATAAACACACATATAAACCAACA [CACACA_site8790]” the “gcPBM binding intensity (ln)” value was 9.31 ± 0.28. With “ATACGCACACATATATGTACATATTGTATATATATA [XGTACX_site3962]” the “gcPBM binding intensity (ln)” value was 9.35 ± 0.44. With “GGAATGGTACATGATACACACACGCACATATATATA [CACACA_site5825]” the “gcPBM binding intensity (ln)” value was 9.45 ± 0.32. In the case of “TATATTAAACAATATACACACATTAATGTATACATA [CACACA_site2755]”, the “gcPBM binding intensity (ln)” value is reported as 8.89 ± 0.35. “AATATATGTATATATTTTTTTTTTTCCCTTACAAAT [GTGCAC_negctrl_site428]” was tested, and the “gcPBM binding intensity (ln)” value was 8.38 ± 0.42. “GTTAAAATTGGGGACGCATGTTCCTTTCCTTTTTTT [TGCATGCA_site1002]” was tested, and the “gcPBM binding intensity (ln)” value was 8.48 ± 0.45.
